Reference: EPA's CvTdb concentration-time database
The source gives many values for each of these; only a part stands here.

Columns and labels:
Rat [1] = assay: concentration in plasma after dosing; conditions: dosed: Methyleugenol, 37 mg/kg, iv, Male, F344/N
Rat [2] = assay: concentration in plasma after dosing; conditions: dosed: Methyleugenol, 37 mg/kg, iv, Female, F344/N
Rat [3] = assay: concentration in plasma after dosing; conditions: dosed: Methyleugenol, 37 mg/kg, iv, Male, F344/N; remark: listed apart in the source
Rat [4] = assay: concentration in plasma after dosing; conditions: dosed: Methyleugenol, 37 mg/kg, iv, Female, F344/N; remark: listed apart in the source
Rat [5] = assay: concentration in plasma after dosing; conditions: dosed: Methyleugenol, 37 mg/kg, iv, Female, F344/N; remark: listed apart in the source
Rat [6] = assay: concentration in plasma after dosing; conditions: iv
Rat [7] = assay: concentration in plasma after dosing; conditions: dosed: Methyleugenol, 37 mg/kg, iv, Female, F344/N; remark: listed apart in the source
Rat [8] = assay: concentration in plasma after dosing; conditions: dosed: Methyleugenol, 37 mg/kg, iv, Male, F344/N; remark: listed apart in the source
Rat [9] = assay: concentration in plasma after dosing; conditions: dosed: Methyleugenol, 37 mg/kg, iv, Male, F344/N; remark: listed apart in the source
Rat [10] = assay: concentration in plasma after dosing; conditions: dosed: Methyleugenol, 37 mg/kg, iv, Female, F344/N; remark: listed apart in the source
Rat [11] = assay: concentration in plasma after dosing; conditions: dosed: Methyleugenol, 37 mg/kg, iv, Female, F344/N; remark: listed apart in the source
Rat [12] = assay: concentration in plasma after dosing; conditions: dosed: Methyleugenol, 37 mg/kg, iv, Male, F344/N; remark: listed apart in the source
Rat [13] = assay: concentration in plasma after dosing; conditions: dosed: Methyleugenol, 37 mg/kg, iv, Female, F344/N; remark: listed apart in the source
Rat [14] = assay: concentration in plasma after dosing; conditions: dosed: Methyleugenol, 37 mg/kg, iv, Male, F344/N; remark: listed apart in the source
Rat [15] = assay: concentration in plasma after dosing; conditions: dosed: Methyleugenol, 37 mg/kg, iv, Female, F344/N; remark: listed apart in the source
Rat [16] = assay: concentration in plasma after dosing; conditions: dosed: Methyleugenol, 37 mg/kg, iv, Female, F344/N; remark: listed apart in the source
Rat [17] = assay: concentration in plasma after dosing; conditions: dosed: Methyleugenol, 37 mg/kg, iv, Male, F344/N; remark: listed apart in the source
Rat [18] = assay: concentration in plasma after dosing; conditions: dosed: Methyleugenol, 37 mg/kg, iv, Female, F344/N; remark: listed apart in the source
Rat [19] = assay: concentration in plasma after dosing; conditions: dosed: Methyleugenol, 37 mg/kg, iv, Male, F344/N; remark: listed apart in the source
Rat [20] = assay: concentration in plasma after dosing; conditions: dosed: Methyleugenol, 37 mg/kg, iv, Female, F344/N; remark: listed apart in the source
Rat [21] = assay: concentration in plasma after dosing; conditions: dosed: Methyleugenol, 37 mg/kg, iv, Male, F344/N; remark: listed apart in the source
Rat [22] = assay: concentration in plasma after dosing; conditions: dosed: Methyleugenol, 37 mg/kg, iv, Male, F344/N; remark: listed apart in the source
Rat [23] = assay: concentration in plasma after dosing; conditions: dosed: Methyleugenol, 37 mg/kg, iv, Female, F344/N; remark: listed apart in the source
Rat [24] = assay: concentration in plasma after dosing; conditions: dosed: Methyleugenol, 37 mg/kg, iv, Male, F344/N; remark: listed apart in the source
Rat [25] = assay: concentration in plasma after dosing; conditions: dosed: Methyleugenol, 37 mg/kg, iv, Female, F344/N; remark: listed apart in the source
Rat [26] = assay: concentration in plasma after dosing; conditions: dosed: Methyleugenol, 37 mg/kg, iv, Male, F344/N; remark: listed apart in the source
Rat [27] = assay: concentration in plasma after dosing; conditions: dosed: Tetralin, 20 mg/kg, iv, Male, F344
Rat [28] = assay: concentration in plasma after dosing; conditions: 2 h; dosed: Tetralin; 20 mg/kg; iv; Male; F344
Rat [29] = assay: concentration in plasma after dosing; conditions: dosed: Tetralin, 20 mg/kg, iv, Male, F344; remark: listed apart in the source
Rat [30] = assay: concentration in plasma after dosing; conditions: dosed: Tetralin, 20 mg/kg, iv, Male, F344; remark: listed apart in the source
Rat [31] = assay: concentration in plasma after dosing; conditions: dosed: Tetralin, 20 mg/kg, iv, Male, F344; remark: listed apart in the source
Rat [32] = assay: concentration in plasma after dosing; conditions: dosed: Tetralin, 20 mg/kg, iv, Male, F344; remark: listed apart in the source
Rat [33] = assay: concentration in plasma after dosing; conditions: 2 h; dosed: Tetralin; 20 mg/kg; iv; Male; F344; remark: listed apart in the source
Rat [34] = assay: concentration in plasma after dosing; conditions: dosed: Tetralin, 20 mg/kg, iv, Male, F344; remark: listed apart in the source
Rat [35] = assay: concentration in plasma after dosing; conditions: dosed: Tetralin, 20 mg/kg, iv, Male, F344; remark: listed apart in the source
Rat [36] = assay: concentration in plasma after dosing; conditions: dosed: Tetralin, 20 mg/kg, iv, Male, F344; remark: listed apart in the source
Rat [37] = assay: concentration in plasma after dosing; conditions: dosed: Tetralin, 20 mg/kg, iv, Male, F344; remark: listed apart in the source
human = assay: concentration in blood after dosing; conditions: dosed: trichloroethylene, 100 ppm, inhalation, duration: 6 hr, male
Procedure, shortened: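 Concentration-versus-time or amount-versus-time points were compiled from published in vivo toxicokinetic studies and from two structured collections. The studies were found by PubMed searching, classifier screening and manual review. Points were mostly digitised from plot screenshots with WebPlotDigitizer, otherwise copied from tables, and kept in the reported units. Dose, route, subject details and medium were curated by hand from each paper, and sampling and analytical methods follow each source and were often unreported.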

C=CCc1ccc(OC)c(OC)c1 [Methyleugenol ]
Conditions	concentration in plasma [ng/mL]
Rat [1], 2 min	27700
Rat [1], 4 h	107
Rat [2], 1 h	1090
Rat [2], 4 h	186
Rat [3], 8 h	32.3
Rat [3], 20 min	7930
Rat [4], 1.5 h	957
Rat [4], 20 min	8310
Rat [5], 8 h	53.1
Rat [5], 20 min	8110
Rat [7], 1 h	1280
Rat [7], 2 h	455
Rat [8], 0.5 h	5220
Rat [8], 3 h	146
Rat [9], 4 h	80
Rat [9], 10 min	13200
Rat [10], 0.5 h	4760
Rat [10], 8 h	71.3
Rat [11], 1.5 h	845
Rat [11], 2 min	27800
Rat [12], 6 h	89
Rat [12], 10 min	15500
Rat [13], 1.5 h	800
Rat [13], 5 min	22500
Rat [14], 1.5 h	936
Rat [14], 20 min	9170
Rat [15], 3 h	281
Rat [15], 10 min	13800
Rat [16], 0.5 h	3990
Rat [16], 2 h	377
Rat [17], 2 min	26100
Rat [17], 8 h	25.9
Rat [18], 5 min	24400
Rat [18], 6 h	108
Rat [19], 3 h	194
Rat [19], 5 min	21500
Rat [20], 1 h	1570
Rat [20], 4 h	161
Rat [21], 0.5 h	3650
Rat [21], 2 h	573
Rat [22], 1.5 h	899
Rat [22], 5 min	20300
Rat [23], 0.5 h	3990
Rat [23], 6 h	123
Rat [24], 1 h	1760
Rat [24], 2 h	468
Rat [25], 2 min	26900
Rat [25], 3 h	338
Rat [26], 1 h	1750
Rat [26], 6 h	45.8

concentration in plasma [ng/mL], Rat [6], dosed: Methyleugenol, 37 mg/kg, F344/N
Conditions	Female	Male
0.15 h	16900	–
0.5 h	–	6380
1 h	–	1600
1.5 h	–	1170
2 h	646	421
2 min	26200	22000
3 h	294	261
4 h	152	89.3
5 min	21500	21300
6 h	92.9	47.6
8 h	70.6	48.2
10 min	18700	15500
20 min	8070	6060

c1ccc2c(c1)CCCC2 [Tetralin]
Conditions	concentration in plasma [µg/g]
Rat [27], 0.5033 h	4.96
Rat [27], 8 h	0.0537
Rat [29], 1 h	1.12
Rat [29], 24 h	0.00684
Rat [30], 0.5017 h	4.16
Rat [30], 8 h	0.0756
Rat [31], 0.75 h	1.83
Rat [31], 12 h	0.0332
Rat [32], 0.75 h	1.89
Rat [32], 12 h	0.0274
Rat [34], 0.25 h	11.8
Rat [34], 6 h	0.083
Rat [35], 0.25 h	10.4
Rat [35], 6 h	0.113
Rat [36], 1 h	0.934
Rat [36], 24 h	0.00972
Rat [37], 4 h	0.146
Rat [37], 301 s	23.5

Rat [6], dosed: Tetralin, 20 mg/kg, Male, F344
Conditions	concentration in plasma [µg/g]
0.2517 h	6.62
0.5033 h	3.7
0.75 h	1.96
1 h	1.15
2 h	0.368
6 h	0.0584
8 h	0.0542
12 h	0.0317
24 h	0.00819
301 s	18.3

Conditions	concentration in plasma [µg/g]
Rat [28]	0.319
Rat [33]	0.367

OCC(Cl)(Cl)Cl [trichloroethanol]
human
Conditions	concentration in blood [ng/mL]
96 h	13900
160 h	70
